Where “and” joins values, the source holds several entries; their conditions need not be identical. Equal entries are not always repeated. Out of some 400,000 compounds screened, about 2,200 (0.55%) were called active. Inconclusive results (about 1%) are left out. The call rests on the fitted dose curve; in most records, active means well fitted inhibition curve with a large enough effect; inconclusive means small, poorly fitted or top-dose-only effect, or another doubt; inactive means no such curve, though single readings can be large or run the other way. Only a part is listed here, and it is no random draw. The source holds several records for some structures; these can differ, active in one and inactive in another.
On the % scale 0 is the no-effect control and ±100 the full control effect; potency means the concentration at half of the fitted maximal effect.

The assay addresses DNA polymerase kappa (Homo sapiens) (UniProt Q9UBT6). Briefly: qHTS for Inhibitors of Polymerase Kappa. Particulars: purified Pol kappa, fluorescent DNA synthesis assay, 10 min; series mostly up to 107 µM; activity, negative = inhibition: at the top concentration. The procedure, abridged: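 Enzyme at 10 nM met test compounds for 15 min at room temperature. Substrate addition (50 nM final) began the reaction, which was monitored by fluorescence at 0 and 10 min.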
UniProt Q9UBT6, sequence (Q9UBT6 whole entry, looked up): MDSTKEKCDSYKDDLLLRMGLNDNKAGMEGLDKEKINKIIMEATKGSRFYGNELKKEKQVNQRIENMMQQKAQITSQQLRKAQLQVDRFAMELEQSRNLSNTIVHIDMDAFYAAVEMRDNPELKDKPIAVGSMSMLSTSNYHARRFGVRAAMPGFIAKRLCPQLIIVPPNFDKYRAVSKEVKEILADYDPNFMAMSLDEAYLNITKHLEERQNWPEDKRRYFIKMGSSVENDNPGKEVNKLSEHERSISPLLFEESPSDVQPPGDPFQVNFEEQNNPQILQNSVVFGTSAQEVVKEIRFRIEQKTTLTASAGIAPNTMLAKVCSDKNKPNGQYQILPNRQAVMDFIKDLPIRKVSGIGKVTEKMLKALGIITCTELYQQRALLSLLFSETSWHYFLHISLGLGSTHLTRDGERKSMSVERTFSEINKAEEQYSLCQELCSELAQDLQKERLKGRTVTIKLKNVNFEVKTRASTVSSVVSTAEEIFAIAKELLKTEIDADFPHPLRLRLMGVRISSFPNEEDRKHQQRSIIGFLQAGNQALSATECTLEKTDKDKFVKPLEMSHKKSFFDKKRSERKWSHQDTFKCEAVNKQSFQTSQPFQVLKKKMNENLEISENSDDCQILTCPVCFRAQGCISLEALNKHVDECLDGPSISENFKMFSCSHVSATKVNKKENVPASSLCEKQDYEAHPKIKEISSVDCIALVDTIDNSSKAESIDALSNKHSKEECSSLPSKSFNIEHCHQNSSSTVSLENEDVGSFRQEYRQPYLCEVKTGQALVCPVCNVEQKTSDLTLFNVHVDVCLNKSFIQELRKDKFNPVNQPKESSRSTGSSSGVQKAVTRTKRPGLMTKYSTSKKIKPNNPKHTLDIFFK
Turning to `Cc1ccc(OCC(=O)c2c(N)n(C)c(=O)n(C)c2=O)c([N+](=O)[O-])n1`, the Potency was active: 35.5 µM. With `COC(=O)Cc1csc(N)n1`, the “activity, negative = inhibition” value was inactive: -8.58%.

As for `CCn1cc(C(=O)NCCc2ccc(OC)c(OC)c2)c(=O)c2cc(S(=O)(=O)N3CCOCC3)ccc21`, the “activity, negative = inhibition” value was inactive: 2.49%. Same read-out and setting: the same measure for `CC(=O)Nc1ccc(SCCN2CC[C@@H](O)CCC2=O)cc1`: inactive: -4.42%. For the molecule `CCC(=O)Nc1ccc2nc3c(=O)[nH]c(=S)[nH]c3nc2c1`, the Potency is active: 44.7 µM.

In the case of `CC(C)(CO)Cc1cc(C(C)(C)C)c(O)c(C(C)(C)C)c1`, the Potency result was “inactive”. On to `COc1ccc(-c2cc(=O)c3c(OC)c(OC)c(OC)cc3o2)cc1OC`, for which the “activity, negative = inhibition” value is inactive: 20.1% [at 60.1 µM]. Regarding `N#Cc1c(SCC(=O)Nc2nncs2)sc2c(O)cc(=O)[nH]c12`, the Potency was active: 8.91 µM. On the same count and under the same terms, as for `O=C(O)CCCCC1CCSS1` (stereo unspecified), the figure is active: 6.7 µM.

With `C[C@@H]1O[C@@H](OC[C@H]2O[C@@H](Oc3c(-c4ccc(O)cc4)oc4cc(O)cc(O)c4c3=O)[C@H](O)[C@@H](O)[C@@H]2O)[C@H](O)[C@H](O)[C@H]1O`, the “activity, negative = inhibition” value is inactive: -15.5%.

`CCOC(=O)C1Oc2ccccc2C(c2ccc(OC)cc2)=C1C(=O)OC` (stereo unspecified): the “activity, negative = inhibition” value was inactive: 5.04%.

Consider `O=C(O)c1ccc(-n2cccc2/C=C2/NC(=O)N(c3cccc(Cl)c3)C2=O)cc1`, for which the Potency was active: 15.8 µM. As to `CC(CCc1ccccc1)NC(=O)C1CC1` (stereo unspecified), the “activity, negative = inhibition” value is inactive: 33.3%.

For the molecule `C=C1C(=O)O[C@@H]2[C@H]3O[C@]3(C)CCC=C(C)CC[C@@H]12`, the “activity, negative = inhibition” value was inactive: 5.13% [at 60.1 µM]. In the case of `CCC(C)n1ncn(-c2ccc(N3CCN(c4ccc(OCC5COC(Cn6cncn6)(c6ccc(Cl)cc6Cl)O5)cc4)CC3)cc2)c1=O` (stereo unspecified), the “activity, negative = inhibition” value was inactive: -22.7%. In the case of `CC(=O)Oc1cc2cccc(OC(C)=O)c(=O)c2c(OC(C)=O)c1OC(C)=O`, the Potency was active: 1 µM. In the case of `CCOC(=O)[C@@H]1[C@H]2COc3cc(OC)ccc3[C@@H]2N2C(=O)N(c3cccc(F)c3)C(=O)[C@@]12C`, the “activity, negative = inhibition” value was inactive: 11.4%. `N.N.O=C(O)C1(C(=O)O)CCC1.[Pt]`: the Potency was active: 22.4 µM. In the case of `NC(=O)[C@@H]1CCCN1C(=O)[C@@H](Cc1cnc[nH]1)NC(=O)[C@@H]1CCC(=O)N1`, the “activity, negative = inhibition” value was inactive: -0.251%. For `Cc1cc(-c2csc(N)n2)c(C)n1Cc1ccco1`, the Potency is active: 10 µM. On the same count and under the same terms, as for `O=C1C(SCCO)=C(SCCO)C(=O)c2ccccc21`, the entry is “inactive”; as for `COc1cc(/C=C/C(=O)CC(=O)/C=C/c2ccc(O)c(OC)c2)ccc1O`, “inactive”. For the molecule `O=C(CSc1nc(NS(=O)(=O)c2ccccc2)cc(=O)[nH]1)Nc1ccc(F)cc1`, the Potency was active: 50.1 µM. Turning to `CCC(=O)NC1CCc2cccc(OC)c2C1` (stereo unspecified), the activity, negative = inhibition is inactive: -0.283% [at 19.4 µM]. As to `CCCC1Nc2ccc(C(=O)O)cc2C2C=CCC12` (stereo unspecified), the Potency was active: 35.5 µM.

As for `N[C@@H](CSSC[C@H](N)C(=O)O)C(=O)O`, the “activity, negative = inhibition” value is inactive: 21.6% [at 60.1 µM]. `N#CCC(=O)c1sccc1-n1cccc1`: the Potency was active: 79.4 µM.

Turning to `O=C(O)C(c1ccccc1)N1C(=O)/C(=C\c2ccc(O)c(O)c2)SC1=S` (stereo unspecified), the Potency is active: 7.08 µM. `CCCCCN=C(N)N/N=C/c1c[nH]c2ccc(OC)cc12`: the Potency result was “inactive”. For `OC[C@@H]1[C@@H](c2ccccc2)C(c2ccccc2)=NN1c1ccccc1`, the “activity, negative = inhibition” value is inactive: -1.45%. For `O=C(O)c1ccc2c(c1)C(=O)/C(=C\c1ccco1)C2=O`, the Potency was active: 8.91 µM.

In the case of `Oc1c(Br)cc(Br)cc1/C=N/c1nc2c(s1)CCCC2`, the Potency is active: 79.4 µM. `C=C1C(=O)OC(CCCCCCCC)C1C(=O)O` (stereo unspecified): the “activity, negative = inhibition” value was inactive: 12.8% [at 60.1 µM]. As for `O=[N+]([O-])c1cccc2c[nH]nc12`, the Potency is active: 12.6 µM. Turning to `OC[C@@H]1[C@@H](c2ccccc2)C(c2cccc(Cl)c2)=NN1c1ccccc1`, the “activity, negative = inhibition” value was inactive: -2.03%. On the same count and under the same terms, the same measure for `CSc1ccc2c(c1)[C@H](N1CCN(C)CC1)Cc1ccccc1S2`: inactive: -4.65% [at 12 µM] and inactive: -11.9% [at 19.4 µM]; for `Cc1ccc(/C=C2\C(=O)ON=C2c2ccccc2)o1`: inactive: -1.14%; for `NC(N)=NCCC[C@H](N)C(=O)NCC(=O)N[C@@H](CC(=O)O)C(=O)O`: inactive: 15.5% [at 60.1 µM]. For `O=C(NC1CCN(CCc2c[nH]c3ccccc23)CC1)c1ccccc1`, the Potency result was “inactive”. Consider `O=C(NNC(=O)c1cc2cc3ccccc3nc2s1)c1cccc(Cl)c1`, for which the Potency is active: 79.4 µM.

For `Cc1cc(N)c2ccccc2[n+]1CCCCCCCCCC[n+]1c(C)cc(N)c2ccccc21`, the activity, negative = inhibition was inactive: -10% [at 12 µM].

For the origin of these results see PubChem BioAssay AID588579 (National Center for Advancing Translational Sciences (NCATS), 2011).
